Laboratory results published in PubChem BioAssay AID504832 (National Center for Advancing Translational Sciences (NCATS), 2011).
The whole screen tested about 310,000 compounds, of which about 18,000 (5.8%) were called active. Inconclusive means that the source gave no clear call. Such entries were picked first, then a sample of the others. Calls follow the shape of the dose curve; as a rule, active = well fitted inhibition curve with a large enough effect; inconclusive = small, poorly fitted or top-dose-only effect, or another doubt; inactive = no such curve, though single readings can be large or run the other way. No potency is given beside an inconclusive call; the fits are too rough.

Assay: Primary qHTS for delayed death inhibitors of the malarial parasite plastid, 48 hour incubation
Settings: P. falciparum luciferase growth in erythrocytes; series mostly up to 28.7 µM
Procedure, shortened: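 Here the parasites carry a stable luciferase gene and grow inside erythrocytes in Albumax-based RPMI medium with compound for one erythrocytic cycle. Activity is scored as loss of luminescent signal.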
Potency is read from the fitted curve at half-maximal effect; tags tell the direction and shape of the fitted curve.

| Structure (SMILES) | Potency |
| --- | --- |
| CCN(CC)S(=O)(=O)c1cccc(C(=O)N[C@H](C(=O)OCC(N)=O)C(C)C)c1 | inactive |
| O=C(Nc1cccc(O)c1)c1ccc(Br)c(S(=O)(=O)N2CCCCC2)c1 | inconclusive [inhibitor, single point] |
| CCOC(=O)C1CCN(c2cc(=O)n(C3CCCCC3)c(=O)[nH]2)CC1 | active: 2.94 µM |
| CCc1ccc2[nH]c(C(=O)Nc3ccc4c(c3)OCO4)cc2c1 | inconclusive [inhibitor, single point] |
| CC1=C(C(=O)Nc2ccc(C)cc2C)C(c2ccc(C)o2)NC(=O)N1 (stereo unspecified) | inactive |
| CN(Cc1ccccc1)C(=O)c1ccc(NC(=O)Cc2cccc(NC(=O)C3CCN(C(=O)C4CCCC4)CC3)c2)cc1 | inconclusive [inhibitor, partial curve] |
| Cc1ncc(CO)c(/C=N/NC(=O)c2ccc(Br)cc2)c1O | inconclusive [inhibitor, single point] |
| O=C(OCC1OC2OC3(CCCCC3)OC2C2OC3(CCCCC3)OC12)c1ccccc1 (stereo unspecified) | inconclusive [inhibitor, single point] |
| CN(C)CCCN(C(=O)c1ccc(S(=O)(=O)N2CCc3ccccc3C2)cc1)c1nc2c(F)cc(F)cc2s1 | inconclusive [inhibitor, single point] |
| Cc1cccc(NC(=O)C2SC(=Nc3c(C)cccc3C)C(C(=O)N3CCOCC3)=C2N)c1 (stereo unspecified) | inactive |
| Cc1cc(C)nc(NC(=O)Cc2ccc(Br)cc2)n1 | inactive |
| COc1ccc(N(CC(=O)NCc2ccc(F)cc2)S(=O)(=O)c2c(C)n[nH]c2C)cc1 | inconclusive [inhibitor, single point] |
| O=C(Nc1ccc(Nc2ccccc2)cc1)c1ccco1 | inconclusive [inhibitor, single point] |
| COC(=O)c1[nH]c2cc(C)ccc2c1NC(=O)CN1CCCc2ccccc21 | inconclusive [inhibitor, partial curve, poor fit] |
| COc1ccc(-n2c(/C=C/c3ccc(O)c(O)c3)nc3ccccc3c2=O)cc1 | active: 5.22 µM |
| O=C(O)CCCCCNCc1c(Cl)cccc1Cl | inconclusive [inhibitor, partial curve] |
| O=C(CCc1nnc2ccc(N3CCC4(CC3)OCCO4)nn12)NCc1ccc(F)cc1 | inactive |
| CCCNC(=O)C(Cc1ccccc1F)NC(=O)c1ccccn1 (stereo unspecified) | inactive |
| CCc1ccc2nc(N(CCCN(C)C)C(=O)c3ccc(S(=O)(=O)N4CCCC4)cc3)sc2c1 | inconclusive [inhibitor, single point] |
| Cc1cc(-c2csc(NC(=O)c3ccc(=O)n(C)n3)n2)c(C)n1CC1CCCO1 (stereo unspecified) | inconclusive [inhibitor, partial curve] |
| COc1cc2c(c3oc(-c4ccccc4)cc(=O)c13)C=CC(C)(C)O2 | inconclusive [inhibitor, single point] |
| CC(C)c1nc(C(=O)N2CCCC(N3CCN(c4cccc(Cl)c4)CC3)C2)cs1 (stereo unspecified) | inconclusive [inhibitor, single point] |
| Cc1ccc2nc(N/N=C/c3ccco3)cc(C)c2c1 | inconclusive [inhibitor, single point] |
| C=CCc1ccccc1OCC(O)CN1CCN(c2ccc(C)cc2)CC1 (stereo unspecified) | inconclusive [inhibitor, partial curve] |

| Structure (SMILES) | Potency |
| --- | --- |
| CCc1nc(CN2CCCC(C(=O)c3ccc4c5c(cccc35)CC4)C2)c(C)[nH]1 (stereo unspecified) | inconclusive [inhibitor, single point] |
| O=C(CSc1nc2ccccc2c(=O)[nH]1)Nc1ccccc1O | inactive |
| CCN(CC)c1ccc(NC(=O)c2cnn(CC)c2)cc1 | inconclusive [inhibitor, partial curve, poor fit] |
| COC(=O)C1=C(C)N(CCc2c[nH]c3ccc(OC)cc23)C(=O)C1 | inconclusive [inhibitor, single point] |
| Cc1ccccc1C(=O)NCC(=O)NCC1(N2CCOCC2)CCCCC1 | inactive |
| CCc1nn(C(CC)C(=O)NCCCc2ccccc2)c(=O)c2cc3occc3n12 (stereo unspecified) | inactive |
| COc1cccc(-c2nc(-c3ccc(NC(=O)c4cccnc4)cc3)no2)c1 | inconclusive [inhibitor, full curve, poor fit] |
| N#C/C(=C/c1ccc([N+](=O)[O-])cc1)C(N)=O | inactive |
| Cc1cc(C)n2nc(-c3cccc(Br)c3)cc2n1 | inactive |
| CN1CCN(c2ccc(NC(=O)c3cc(Cl)c4c(c3)OCCO4)cc2)CC1 | inconclusive [inhibitor, single point] |
| CC(=O)c1ccc(OCC(=O)NC2CCCN(Cc3ccccc3F)C2)cc1 (stereo unspecified) | inconclusive [inhibitor, single point] |
| COc1ccc(NC(=O)c2sc3nc(N4CCOCC4)c4c(c3c2N)CC(C)(C)OC4)c(OC)c1 | inconclusive [inhibitor, partial curve] |
| CC(C)C1Oc2ccccc2N(CC(=O)NCCCN2C(C)CCCC2C)C1=O (stereo unspecified) | inactive |
| Cc1ccc(SCCOCCN2CCc3ccccc3C2)cc1 | inactive |
| N#Cc1c(=O)c2nc(NCc3ccccc3)ncc2n2ccccc12 | inconclusive [inhibitor, full curve] |
| CCOc1cc(Br)cc(/C=C2\SC(=Nc3ccccc3)NC2=O)c1O | inconclusive [inhibitor, single point] |
| C=CC#CC1(O)CC(C)N(C)CC1C (stereo unspecified) | inactive |
| COc1cc(/C=C(\C#N)c2nc3ccc(C)cc3[nH]2)cc([N+](=O)[O-])c1O | inconclusive [inhibitor, partial curve, poor fit] |
| Cc1nc(-c2ccncc2)sc1C(=O)Nc1ccc(Cl)cc1 | inconclusive [inhibitor, partial curve, poor fit] |
| COc1cccc(/C=C2/C(=O)NN(c3ccc(C)c(C)c3)C2=O)c1 | inconclusive [inhibitor, full curve] |
| CC(=O)c1c(C)nc(C)nc1NC(=O)Cc1ccccc1 | inactive |
| CCOc1c(Cl)cc(C(=O)Nc2cccc(C(=O)O)c2)cc1Cl | inactive |
| Cc1cccc(N2CCN(S(=O)(=O)c3c(C)[nH]c(C)c3C(=O)N3CCCC3)CC2)c1C | inconclusive [inhibitor, single point] |
| O=C(C[n+]1ccccc1)N/N=C/c1ccc(O)cc1 | inconclusive [inhibitor, single point] |

| Structure (SMILES) | Potency |
| --- | --- |
| O=C(NCCN1CCc2ccccc2C1)Nc1ccc([N+](=O)[O-])cc1 | inconclusive [inhibitor, partial curve, poor fit] |
| COC(=O)CCCC1=CC2=CC(=O)C(C)(OC(=O)c3cccs3)C(=O)C2=CN1CCc1c[nH]c2ccccc12 (stereo unspecified) | active: 8.28 µM |
| Cc1ccc(-c2nn(-c3ccccc3)cc2/C=N/NC(=O)c2ccc(Br)o2)cc1 | inconclusive [inhibitor, partial curve] |
| CC(C)CNC(=O)C(=O)NNC(=O)C1CCCCC1 | inactive |
| CCOC(=O)C1CCCN(S(=O)(=O)c2ccc(S(=O)(=O)N3CCCC3)cc2)C1 (stereo unspecified) | inconclusive [inhibitor, single point] |
| O=C(NC(=C(Cl)Cl)S(=O)(=O)c1ccc(Cl)cc1)c1ccccc1 | inactive |
| Cc1cccc(C)c1NC(=O)c1cc(S(=O)(=O)N2CCc3ccccc32)cn1C | inconclusive [inhibitor, single point] |
| O=C(c1cc(Cl)nc2ccccc12)N1CCN(S(=O)(=O)c2cccc(C(F)(F)F)c2)CC1 | inconclusive [inhibitor, single point] |
| CC1(C)C2CCC1(C)C(OC(=O)c1ccc(O)cc1)C2 (stereo unspecified) | inconclusive [inhibitor, partial curve, poor fit] |
| O=C(Nc1nnc(-c2ccccc2Cl)o1)c1cc2cc([N+](=O)[O-])ccc2s1 | inactive |
| O=C(CCC(=O)N1CCCCCC1)NCc1ccc(F)cc1 | inactive |
| CCn1c(SCC(=O)Nc2ccc(S(N)(=O)=O)cc2)nnc1-c1ccccc1OC | inactive |
| COc1cccc(N/C(N)=N/c2nc(C(F)(F)F)cc(C(F)(F)F)n2)c1 | inconclusive [inhibitor, single point] |
| Cc1ccc(/C(N)=N/OC(=O)N2CCOCC2)cc1 | inconclusive [inhibitor, partial curve, poor fit] |
| Cn1c(SCC(=O)NCCN2C(=O)CSC2=O)nc2ccccc2c1=O | inactive |
| Cc1ccc(NC(=O)Cc2nnc(SCC(=O)NC3CCCC3)n2C)c(C)c1 | inactive |
| CCOc1ccccc1N1CCN(C(=O)NC2CCCCC2)CC1 | inactive |
| O=C(Cn1cccc1C(=O)c1ccccc1)NCCCN1CCc2ccccc2C1 | inactive |
| Cc1ccc(C)c(S(=O)(=O)N2CCCC2CNC(=O)C(=O)NCCN2CCOCC2)c1 (stereo unspecified) | inconclusive [inhibitor, partial curve, poor fit] |
| Cc1ccc(S(=O)(=O)NCCC(c2ccc(F)cc2)c2ccco2)cc1 (stereo unspecified) | inconclusive [inhibitor, partial curve, poor fit] |
| O=[N+]([O-])c1ccc(Cl)cc1N1CCCCC1 | inactive |
| COc1ccc(CNC(=O)COc2cc(O)c3c(c2)OC(C)(C)CC3=O)cc1 | inconclusive [inhibitor, single point] |
| COC(=O)Cc1ccc(NC(=O)c2ccc3c(c2)C(=O)N(CC2CCCO2)C3=O)cc1 (stereo unspecified) | inactive |
